The campaign covered roughly 310,000 compounds. About 14,000 (4.5%) showed an effect of 50% or more. Effects have a minus sign here. The list shows a part of the results.
The molecules below were run against human ether-à-go-go-related gene (hERG) potassium channel (human, UniProt Q12809) (assay: primary screen, population patch clamp on CHO cells stably expressing hERG).
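Further: peak tail current of the secondary pulse compared with the same well before compound.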

Sequence of human ether-à-go-go-related gene (hERG) potassium channel (Q12809 whole entry, looked up): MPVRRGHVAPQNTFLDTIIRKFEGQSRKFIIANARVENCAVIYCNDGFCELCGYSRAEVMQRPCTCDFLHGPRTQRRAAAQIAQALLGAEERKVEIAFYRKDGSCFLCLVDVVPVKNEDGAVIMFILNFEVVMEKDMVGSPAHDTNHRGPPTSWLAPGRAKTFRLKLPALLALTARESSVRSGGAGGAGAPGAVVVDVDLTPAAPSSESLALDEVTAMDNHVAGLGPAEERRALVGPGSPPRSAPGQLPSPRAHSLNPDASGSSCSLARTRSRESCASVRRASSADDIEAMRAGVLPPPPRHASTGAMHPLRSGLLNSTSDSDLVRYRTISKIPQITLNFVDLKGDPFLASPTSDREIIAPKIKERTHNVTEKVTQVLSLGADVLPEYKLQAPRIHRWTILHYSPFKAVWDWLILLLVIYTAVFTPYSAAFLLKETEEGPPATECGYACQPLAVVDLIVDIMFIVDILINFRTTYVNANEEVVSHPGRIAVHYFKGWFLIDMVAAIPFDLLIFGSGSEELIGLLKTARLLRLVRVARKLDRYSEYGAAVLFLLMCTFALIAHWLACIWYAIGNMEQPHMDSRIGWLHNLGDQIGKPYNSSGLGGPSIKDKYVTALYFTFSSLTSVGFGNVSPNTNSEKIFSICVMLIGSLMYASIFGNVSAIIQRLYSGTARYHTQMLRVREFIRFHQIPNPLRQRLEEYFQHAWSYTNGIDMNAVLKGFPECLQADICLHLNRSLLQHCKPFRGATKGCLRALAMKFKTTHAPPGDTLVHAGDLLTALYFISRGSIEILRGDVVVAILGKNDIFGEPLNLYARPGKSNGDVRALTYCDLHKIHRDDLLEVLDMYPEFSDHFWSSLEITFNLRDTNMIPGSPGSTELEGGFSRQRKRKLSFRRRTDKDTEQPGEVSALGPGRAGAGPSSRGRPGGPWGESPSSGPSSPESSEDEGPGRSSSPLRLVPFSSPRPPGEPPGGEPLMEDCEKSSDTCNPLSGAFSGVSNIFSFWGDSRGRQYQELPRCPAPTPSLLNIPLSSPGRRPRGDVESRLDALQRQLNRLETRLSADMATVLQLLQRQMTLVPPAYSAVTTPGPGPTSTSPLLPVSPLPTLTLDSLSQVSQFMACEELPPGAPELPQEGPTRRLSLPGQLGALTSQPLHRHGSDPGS

Compound	hERG current change (%, negative = inhibition) at 10uM [%]
CCCCC1=NN(C(=O)c2ccco2)C(O)(C(F)(F)F)C1 (stereo not shown)	6.78
OCCN1CCN(C(=S)Nc2ccc(Oc3ccccc3)cc2)CC1	-22.2
CCN1CCN(CCCNC(=O)CCC(=O)N2CCOc3ccc(Cl)cc32)CC1	-5.48
Cc1cc(C)c2c(CN3CCCCC3)cc(=O)oc2c1	10.7
CCOC(=O)c1sc2nc(CN3CCN(c4cccc(C(F)(F)F)c4)CC3)[nH]c(=O)c2c1C	8.43
CCn1ncc(C(=O)Nc2cc(C)on2)c1C	4.46
CCOC(=O)c1c(NC(=O)CSc2nnc(CNc3ccc(Cl)cc3)o2)sc(C)c1C	16.9
CC(C)=CCC/C(C)=C/Cc1c(O)ccc(C(=O)/C=C/c2ccc(O)cc2)c1O	15.8
CN(NC(=O)C1CC(=O)N(c2ccccc2)C1)C1=NS(=O)(=O)c2ccccc21 (stereo not shown)	9.65
CCCn1c(=NC(=O)CCS(=O)(=O)c2ccccc2)sc2cc(S(N)(=O)=O)ccc21	-7.03
O=c1oc2ccccc2nc1/C=C(O)/C=C\c1ccccc1	12
CC(Oc1ccc(F)cc1)C(=O)N(Cc1ccccc1)c1c(N)n(Cc2ccccc2)c(=O)[nH]c1=O (stereo not shown)	-13.9
C=CCn1c(CCNC(=O)c2ccccc2F)nnc1SCC(=O)Nc1ccccc1F	-11.2
CCCn1c(N)c(Sc2ccc(Cl)cc2)c(=O)n(CCC)c1=O	-43.3
Cc1ccc(-c2cc(C(=O)OCC(=O)N(C)C3CCS(=O)(=O)C3)c3ccccc3n2)o1 (stereo not shown)	-19.1
N#Cc1nc(COc2ccc(F)cc2)oc1N1CCCC1	-46.7
CN1/C(=C\C=Nc2cc(S(=O)(=O)N3CCOCC3)ccc2N2CCOCC2)C(C)(C)c2ccccc21	-71
COc1ccc(CC2(CO)CCN(S(=O)(=O)c3sccc3C)CC2)cc1	-20.9
CSc1ccccc1C(=O)NC1CCCC1	20.8
COc1ccc(OCc2cc(C(=O)NC(C)Cc3cnccn3)no2)c(Cl)c1 (stereo not shown)	-4.5
CCOC(=O)CN(C(=O)CNC(=O)c1cccs1)C(C(=O)NC1CCCC1)c1ccncc1 (stereo not shown)	20.5
CCOC(=O)c1sc(N(Cc2ccccc2)C(=O)CCl)nc1C	-6.21

Compound	hERG current change (%, negative = inhibition) at 10uM [%]
O=[N+]([O-])c1cc(C(F)(F)F)ccc1N/N=C/c1cc2ccccc2nc1Cl	11.8
CCOC(=O)C1=C(N)OC2=C(C(=O)CCC2)[C@]12C(=O)N(CC(N)=O)c1ccccc12	20.7
Nc1cc(Br)c(N)c(Br)c1	-7.67
O=C(Nc1ncc2c(n1)CC(c1ccccc1)CC2=O)c1ccco1 (stereo not shown)	-21.9
CCN(CC(=O)Nc1ccc(NC(C)=O)cc1)C(=O)c1cc(C)on1	17.1
COCCn1c(SCC(=O)c2ccc(CNC(C)=O)o2)nc2ccccc2c1=O	-6.18
O=C(CN1C(=O)/C(=C2\SC(=S)N(C3CCS(=O)(=O)C3)C2=O)c2ccccc21)Nc1ccc(F)cc1 (stereo not shown)	13.4
CC(=O)N1NC(=Nc2ccccc2)SC1(C)C	10.1
COc1cc(/C=N/NC(=O)c2ccc3c(c2)OCCO3)cc(Cl)c1O	3.2
COC(=O)c1cc2occc2n1CC(=O)N(C)C1CCCCC1	-2.32
Cc1ccc(S(=O)(=O)Cn2nnnc2C(c2ccccc2)N2CCN(c3ccccc3)CC2)cc1 (stereo not shown)	15.1
COc1ccc(CN(C(=O)c2ccc(C)cc2)C2CCS(=O)(=O)C2)cc1 (stereo not shown)	-18.5
O=C(NC1CCCC1)c1nc2c(nnn2Cc2cccc(Cl)c2)c(=O)[nH]1	-10.9
CSc1ccc(/C=C(\C#N)C(=O)NC2CCCCC2)cc1	2.94
CC1CC(=O)c2cnc(Nc3ccccc3)nc2C1 (stereo not shown)	-6.44
COc1ccc(-n2c(C)c([N+](=O)[O-])c3ccc(O)c(CN4CCCCC4)c32)cc1.Cl	11.5
Cc1ccc(C(C)C)c(OCCNC(=S)Nc2cccc3ccccc23)c1	15.6
O=C(Nc1ccc(F)cc1)C1CCCO1 (stereo not shown)	22.1
CC(=O)Nc1cc(C(=O)NCc2ccco2)ccc1Sc1ccc(C)cc1	-17.8
CCc1ccccc1NC(=O)CSc1nnc(-c2cc(C)[nH]n2)n1N	-4.24
O=c1c2ccccc2nc(-c2ccc(Cl)cc2Cl)n1-c1ccncc1	-9.6

— article PMC4336329 (PLoS ONE, 2015)
